Results as given in publication PMC4336329 (PLoS ONE, 2015).
In all, about 310,000 compounds went through this assay and about 14,000 (4.5%) showed an effect of 50% or more. Effects have a minus sign here. The list shows a part of the results.

Biological target: human ether-à-go-go-related gene (hERG) potassium channel (human, UniProt Q12809)
Assay: primary screen, population patch clamp on CHO cells stably expressing hERG
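Note: peak tail current of the secondary pulse compared with the same well before compound.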

human ether-à-go-go-related gene (hERG) potassium channel, sequence (Q12809 whole entry, looked up): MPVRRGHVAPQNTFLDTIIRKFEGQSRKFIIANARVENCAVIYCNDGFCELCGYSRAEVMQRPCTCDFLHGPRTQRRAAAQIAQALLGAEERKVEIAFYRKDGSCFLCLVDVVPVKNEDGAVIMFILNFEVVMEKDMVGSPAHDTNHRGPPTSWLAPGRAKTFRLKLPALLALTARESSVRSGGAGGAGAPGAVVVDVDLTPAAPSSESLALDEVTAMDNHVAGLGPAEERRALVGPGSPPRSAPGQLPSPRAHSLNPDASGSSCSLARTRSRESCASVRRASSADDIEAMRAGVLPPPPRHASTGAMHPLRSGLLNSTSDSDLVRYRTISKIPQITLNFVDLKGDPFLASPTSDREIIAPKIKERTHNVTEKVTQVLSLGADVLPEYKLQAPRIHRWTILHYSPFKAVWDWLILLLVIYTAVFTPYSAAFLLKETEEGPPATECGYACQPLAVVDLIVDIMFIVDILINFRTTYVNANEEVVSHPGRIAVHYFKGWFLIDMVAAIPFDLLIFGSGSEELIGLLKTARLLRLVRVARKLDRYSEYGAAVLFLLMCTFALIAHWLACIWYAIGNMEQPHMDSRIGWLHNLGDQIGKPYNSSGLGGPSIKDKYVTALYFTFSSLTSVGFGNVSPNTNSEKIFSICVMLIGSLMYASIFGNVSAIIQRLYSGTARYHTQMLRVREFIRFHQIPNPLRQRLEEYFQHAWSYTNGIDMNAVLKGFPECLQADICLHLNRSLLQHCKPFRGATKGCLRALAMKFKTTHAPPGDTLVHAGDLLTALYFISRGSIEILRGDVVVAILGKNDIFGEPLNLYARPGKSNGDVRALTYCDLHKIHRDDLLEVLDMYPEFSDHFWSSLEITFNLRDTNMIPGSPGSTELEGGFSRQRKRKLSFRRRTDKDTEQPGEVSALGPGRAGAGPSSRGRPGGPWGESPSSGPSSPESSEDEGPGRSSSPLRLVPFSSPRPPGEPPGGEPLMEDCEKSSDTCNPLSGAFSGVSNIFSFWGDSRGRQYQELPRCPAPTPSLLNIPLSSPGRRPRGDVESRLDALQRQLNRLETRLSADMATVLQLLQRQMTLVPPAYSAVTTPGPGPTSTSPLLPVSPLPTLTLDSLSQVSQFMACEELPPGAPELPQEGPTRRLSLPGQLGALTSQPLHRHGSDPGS

| SMILES | hERG current change (%, negative = inhibition) at 10uM |
| --- | --- |
| CCn1cc(CNC(=O)/C=C/c2ccc([N+](=O)[O-])cc2)c(C)n1 | -33% |
| O=C(c1ccc2c(c1)N(Cc1ccccc1)C(=O)CS2)N1CCOCC1 | -8.02% |
| C#CCOCCOCCOCCNc1nc(N2CCN(C(=O)[C@H](Cc3cc4ccccc4[nH]3)n3cc(C(N)CC(C)C)nn3)CC2)nc(N2CCN(C(=O)[C@H](CCC(=O)O)n3cc(C(N)[C@H](C)CC)nn3)CC2)n1.Cl (stereo partly drawn) | 8.79% |
| O=C(NC(=S)NC1CCS(=O)(=O)C1)c1cccs1 (stereo not drawn) | 8.22% |
| CCOCCCNC(=O)C(NC(=O)CNC(=O)c1ccccc1)c1ccccc1 (stereo not drawn) | 21.9% |
| CN(C)C(=O)CSc1cnc2ccccc2n1 | 5.74% |
| CCC1COC(c2cccn2Cc2ccc(Cl)cc2)=N1 (stereo not drawn) | -5.09% |
| O=C(CN(Cc1ccccc1)S(=O)(=O)c1ccccc1)N/N=C/c1ccccc1[N+](=O)[O-] | -12.5% |
| CN(C)CCn1c(=S)[nH]c2ccccc2c1=O | 5.8% |
| O=C(CNC(=S)N(Cc1ccccc1F)C1CCCCC1)NC1CC1 | -4.74% |
| COc1ccc(N2CCN(C(=O)c3cc(=O)c4cc(C)ccc4o3)CC2)cc1 | -38.1% |
| CC(C)CNS(=O)(=O)c1cc(C(=O)OCC(=O)c2ccc3c(c2)OCCO3)c(Cl)cc1Cl | 21% |
| COc1ccc(C2C(C(=O)N3CCN(c4ccccc4)CC3)c3ccccc3C(=O)N2C)cc1OC (stereo not drawn) | -15.7% |
| CCN(CC)CCNC(=O)c1ccc(NC(=O)/C=C/c2cc(OC)c(OC)c(OC)c2)cc1.Cl | 9.84% |
| CCOC(=O)CSc1nc2cc(C)cc(C)c2cc1C#N | 14.1% |
| COc1ccc(NC(=O)C2(c3ccc(NC(=O)c4ccc(OC)c(OC)c4)cc3)CCCC2)cc1 | -4.76% |
| CC1CCC(NC(=O)c2ccc(-n3cncn3)c([N+](=O)[O-])c2)CC1 (stereo not drawn) | -17.6% |
| CC(C)(C)C(=O)Nc1sc2c(c1C#N)CCN(Cc1ccccc1)C2.Cl | 1.78% |
| CCc1cccc(OCCCn2ccnc2)c1.O=C(O)C(=O)O | -25.7% |
| CCn1cc(C2=NC(C)CO2)c2ccccc21 (stereo not drawn) | -10.1% |
| CCCCCCc1nc2ccccc2c(=O)n1NC(=O)c1c(O)c2c(n(CC(C)C)c1=O)CCCC2 | 9.82% |
| CN(CC(=O)Nc1ccc(Cl)c(C(F)(F)F)c1)C(=O)c1ccc(OCC2CCCO2)cc1 (stereo not drawn) | -4.78% |

| SMILES | hERG current change (%, negative = inhibition) at 10uM |
| --- | --- |
| O=C(O)c1ccc(-c2nc(-c3ccccc3Cl)cs2)cc1 | 17.6% |
| O=C(NCc1ccc2c(c1)CCO2)Nc1cccc(C(F)(F)F)c1 | 12.6% |
| Cc1cc(C)c(C#N)c(SC(C(=O)NC(C)(C)C)c2ccccc2)n1 (stereo not drawn) | 7.75% |
| CN(C)C(=O)c1cc(C(=O)c2ccc(F)cc2Cl)c[nH]1 | 11.4% |
| CCOc1ccc(NC(=O)CN2C(=O)COc3ccc(S(=O)(=O)N4CCCCC4)cc32)cc1 | 6.34% |
| COC(=O)c1sc2ccc(C)cc2c1C(=O)OC | 1.79% |
| CCOC(=O)c1c(C)[nH]c(C(=O)CSc2nc(C)cc(C)n2)c1C | 12.3% |
| O=C(NC1CCCc2ccccc21)c1ccc(=O)[nH]c1 (stereo not drawn) | -4.97% |
| CC(C)C(=O)N=C1SC2CS(=O)(=O)CC2N1Cc1ccccc1 (stereo not drawn) | 2.66% |
| CCC(=O)NCCc1nc2cc(NC(=O)c3ccccc3OC)ccc2n1C | 4.58% |
| O=[N+]([O-])c1cccnc1Sc1ccc(F)cc1 | -19.4% |
| O=C(CSC1=Nc2ccccc2C2=NC(c3ccccc3)C(=O)N12)NCC1CCCO1 (stereo not drawn) | -24.3% |
| CCOC(=O)C(Cc1cc(C(C)=O)ccc1OCC)C(=O)OCC | -6.67% |
| CC1CC(=O)C(C2c3ccccc3CCN2C(=O)CCl)C(=O)C1 (stereo not drawn) | 2.58% |
| CCOc1ccc(CCNC(=O)COC(=O)COc2ccc(C#N)cc2)cc1OCC | -10.5% |
| CCOc1ccccc1C(=O)OCC(=O)Nc1cc(S(=O)(=O)N2CCOCC2)ccc1C | -15.1% |
| O=C(COC(=O)c1ccc2c(=O)n3c(nc2c1)CCC3)NC1CCS(=O)(=O)C1 (stereo not drawn) | 3.16% |
| O=C(N/C(=C\c1cn(-c2ccccc2)nc1-c1ccc(Cl)cc1)C(=O)N1CCOCC1)c1ccccc1 | 5.42% |
| Cc1c(Cl)cccc1NC(=O)CCCN1C(=O)CCC1=O | 19.7% |
| Cc1ccc(NC(=O)N2CCCC2C(=O)NCc2ccccc2Cl)cc1 (stereo not drawn) | 11.7% |
| CC(=O)Nc1ccc2nc(CN3CCN(Cc4ccc(F)cc4)C(CCO)C3)ccc2c1 (stereo not drawn) | -28.8% |
| Cc1cccc2cccnc12 | 11.6% |

| SMILES | hERG current change (%, negative = inhibition) at 10uM |
| --- | --- |
| CCCN1C(=O)c2ccccc2NC1c1ccc(Br)cc1 (stereo not drawn) | -18.1% |
| COCCCNC(=O)c1c(N)n(-c2ccc3c(c2)OCO3)c2nc3ccccc3nc12 | 9.77% |
| CC1C(=O)Nc2ccc(S(=O)(=O)N3CCN(c4cccc(Cl)c4)CC3)cc2NC1=O (stereo not drawn) | -21.8% |
| CCCN(CCC)CC(O)CN(c1ccccc1)S(=O)(=O)c1ccc(C)cc1 (stereo not drawn) | -80.3% |
| CC(=O)Nc1ccc(S(=O)(=O)NNC(=O)COc2ccc(C)cc2)cc1 | 8.04% |
| Cc1cc(C)cc(C(=O)NCC(=O)OCC(=O)Nc2ccc(C)cc2Br)c1 | -17.2% |
| CN(Cc1ccccc1)C(=O)COC(=O)CCNC(=O)c1ccccc1Cl | 0.088% |
| Cc1ccc(C)c(N2CCN(C(=O)Cn3c(=O)oc4cc(S(=O)(=O)N5CCCC5)ccc43)CC2)c1 | -15% |
| O=C(c1cccc2ccccc12)C1CCCN(C(=O)CCCn2cncn2)C1 (stereo not drawn) | -20.1% |
| CCCC1CCC(c2ccc(OCC)cc2)=CC1=O (stereo not drawn) | 11.8% |
| CCCc1cc(=O)[nH]c(SCC(=O)c2ccc3c(c2)OCCO3)n1 | -9.13% |
| COc1ccc(CNC(=O)c2noc3c2CCCCC3)cc1 | -11.6% |
| Cc1ccc2[nH]c(=O)c(CN(Cc3cccnc3)Cc3nnnn3CCN3CCOCC3)cc2c1 | -0.407% |
| COc1ccccc1OCCCCN1CCN(c2ccccc2OC)CC1.O=C(O)C(=O)O | -43.1% |
| O=C(Nc1ccc2nc(-c3ccccc3)[nH]c2c1)c1ccco1 | -30.8% |
| O=P(Cc1ccccn1)(c1ccccc1)c1ccccc1 | 7.79% |
| COc1cccc(OC)c1C(=O)Nc1ccc(S(=O)(=O)N2CCCCC2)cc1 | 8.72% |
| O=C1NCCC12C(=O)Nc1ccccc12 (stereo not drawn) | 23.4% |
| COC(=O)c1ccc(Oc2cc(C)nc(Cl)n2)cc1 | 13.9% |
| O=C1C(Cl)=C(N2CCN(c3ccccc3[N+](=O)[O-])CC2)C(=O)c2ccccc21 | -19.8% |
| Cc1cccc2cc(CN(Cc3ccc(F)cc3)C(=O)N(C)C)c3nnnn3c12 | -41.4% |
| Br.O=C(O)Cc1sc(N/N=C\c2ccncc2)nc1-c1ccccc1 | 7.53% |

| SMILES | hERG current change (%, negative = inhibition) at 10uM |
| --- | --- |
| O=C(Cc1ccccc1Cl)NCCCn1ccnc1 | 5.85% |
| Nc1nc(SCCO)[nH]c(=O)c1NC(=O)c1ccc(Br)o1 | 23.8% |
| COc1ccc(/C(C)=N/NC(=O)c2sccc2-n2cccc2)cc1 | 19% |
| COc1ccc(C(=O)NC(C(=O)NCc2ccccn2)C(C)C)cc1 (stereo not drawn) | 11.1% |
| CN(C)C=NC(=O)c1[nH]c2ccc(Cl)cc2c1-c1ccccc1 | 18.3% |
| COc1ccc(OC)c(CN2CCCC(C(=O)c3ccccc3SC)C2)c1 (stereo not drawn) | -75.9% |
| CN(C)/C=N/c1nccc(-c2cccs2)n1 | 16.8% |
| CCCCC(=O)OCC(=O)c1[nH]c(C)c(C(C)=O)c1C | -2.36% |
| CCOC(=O)c1nc2c(ccc3ccccc32)cc1C | 8.86% |
| CCC1CCCCN1CCCNC(=O)C1CCN(S(=O)(=O)N2CCC3(CC2)OCCO3)CC1 (stereo not drawn) | 18.8% |
| C/C(=N/NC(=O)CN1CCN(Cc2ccccc2Cl)CC1)c1cccnc1 | -10.4% |
| CCc1ccccc1N(CC(=O)NC(C)(C)C)C(=O)CCC(=O)Nc1ccccn1 | 27.6% |
| COc1cc(NC(=S)NCCCN2CCOCC2)cc(OC)c1OC | -3.22% |
| COc1ccc(C2(CNC(=O)C(c3ccccc3)c3ccccc3)CCOCC2)cc1OC | 4.38% |
| N#CCOc1nc(N2CCCCC2)nc(N2CCCCC2)n1 | -21.8% |
| Cc1cc(OCc2cc(C(=O)N3CCCCCC3)no2)cc(C)c1Cl | 11.8% |
| Cc1ccc2nc3c(c(Nc4ccc(O)cc4)c2c1)CCC3.Cl | -21.2% |
| CC(C)Oc1ccc(C(CCNCc2ccc(O)cc2)c2ccccc2)cc1 (stereo not drawn) | -58.7% |
| CCc1nc(SCC(=O)N2CCCC2)c2c(=O)n(C)c(=O)n(C)c2n1 | -15.4% |
| CC1CCCCN1CCCNC(=O)CN1C(=O)c2cccnc2Oc2ccc(Cl)cc21 (stereo not drawn) | 5.94% |
| COC1=C/C(=C/c2c(O)c(C#N)c3ccccn23)C=CC1=O | 24% |
